# Results reported in article PMC10668032.
# The other results are listed elsewhere or left out. At the low end of the ranking the order means little.
# Molecular target: SIX1 homeodomain (reference allele) (UniProt Q15475)
# Assay: universal protein binding microarray
# Conditions: Universal all-10-mer PBM (8x60K, AMADID 030236), 300 nM GST-tagged protein, Alexa Fluor 488 anti-GST; buffer, salt, pH and temperature not stated; high values mean tight binding; most listed sequences are background and not binding sites; double strand, one strand shown
row,Sequence,binding signal [E-score]
1,ATTTTGAC,-0.117
2,AGATGTCC,0.00742
3,CGGGTCAA,0.191
4,CTTATAAG,-0.136
5,ATGGCTAG,0.0586
6,CGAGTGAC,-0.091
7,ATAGCACA,0.169
8,CCACTAGC,-0.0874
9,GACTCCTC,-0.152
10,AGAACCCT,0.0843
11,ATTGCGCG,-0.0563
12,GGGGCCCC,-0.0405
13,ATTCAAGA,0.0306
14,TACAAGCA,-0.0262
15,CACTACCG,-0.0708
16,CAAATTAA,-0.283
17,ACTCCTCC,-0.087
18,CGTAGCTA,-0.0303
19,GTCCACAA,-0.206
20,CCAGTGGG,-0.0311
21,CCTCTCAG,-0.16
22,ACACGAGA,0.134
23,ATGCGCTG,-0.0953
24,CCCCGGTC,-0.0129
25,ACTAGCCC,-0.118

row,Sequence,binding signal [E-score]
1,AACCTCAT,-0.116
2,TCTCTGAA,-0.25
3,ACCGGACT,-0.078
4,GTGACGCA,-0.139
5,CGACGCAC,-0.0474
6,GTAATTCA,-0.0194
7,CATACGGC,0.0756
8,GGACTAAA,-0.0835
9,TAAAGAGA,-0.159
10,TACTATAA,0.075
11,TCCCGGCA,-0.117
12,AAGTAGAT,0.239
13,ATGGCCAG,-0.0433
14,GAGGGACA,0.0621
15,CAAGGGGC,-0.148
16,AATGTCAC,-0.0789
17,GACCGTTA,0.00061
18,CATTGGAG,-0.0229
19,AATGACCG,-0.206
20,AGGATGGG,0.122
21,CGGGGTTA,0.188
22,TCGCTAAA,-0.19
23,GTGACATA,-0.0367
24,GAGTATGA,0.0737
25,GTAGAAAA,-0.17

row,Sequence,binding signal [E-score]
1,TACTTAGA,0.0533
2,ACATAGGA,-0.0745
3,AACGTATG,-0.149
4,ATGAAGTC,-0.184
5,CTTGGCAA,-0.163
6,GAAGAACC,-0.122
7,CGGATCTA,0.318
8,TCAGCCCA,-0.0372
9,CAACTACG,-0.1
10,ACGAACCC,-0.0698
11,AACAACTT,-0.254
12,CATCATAC,0.151
13,CGCACGAC,0.0642
14,AACGCGTA,-0.0785
15,AAGTTGAA,-0.318
16,ACTAAGCA,-0.311
17,AAATGCGG,-0.166
18,AAGGCGCG,-0.201
19,CACACTGG,-0.0578
20,ACAGGTAT,0.312
21,GGAATCAA,-0.104
22,AGACGACT,0.0849
23,ATGTTGCG,-0.0672
24,ATTTACAA,-0.0379
25,CTCGACTA,-0.118

row,Sequence,binding signal [E-score]
1,AACCCGGC,-0.0303
2,GGGGTCCA,0.107
3,ACATGTGC,-0.224
4,GGCTGAAC,-0.262
5,TCATGAAA,-0.0439
6,CGTAGACG,-0.0672
7,ACTCTGAC,-0.132
8,TACCATAA,0.0698
9,GCGCCTAA,-0.189
10,CATTACTC,-0.0365
11,CAACGTAC,-0.261
12,AAAACCTG,-0.283
13,CATACGAG,0.048
14,AGCGTTGC,-0.292
15,ACTTTGGC,-0.141
16,AAAATCGC,-0.298
17,AGCTAGAT,0.193
18,GGTCCTCA,-0.143
19,CGACTCAG,-0.0717
20,ACTGGACT,-0.238
21,TACCCTAA,0.0851
22,CCGCGACC,-0.0537
23,ATGATACC,0.489
24,AGGGCGGG,-0.0824
25,GAGTTTAC,-0.257

row,Sequence,binding signal [E-score]
1,ATATTATC,0.261
2,GCAGCACC,-0.0737
3,CAGTGATG,-0.161
4,CATCCAAG,0.00634
5,ATGAAACC,0.242
6,GACATCCA,-0.104
7,ACCACAAT,0.04
8,CGAAAAAC,-0.13
9,AAGCTAAT,-0.0694
10,AAGCGAGG,-0.0432
11,GAATCTTA,-0.176
12,ATACGCTA,0.281
13,ACGACAGT,-0.174
14,CATTCTGG,-0.183
15,ATCGGCGA,0.263
16,TAGGACAA,-0.0381
17,AGAACGAC,-0.0982
18,CCGTGGGA,-0.111
19,CATGCTGC,-0.192
20,AGATATGA,0.291
21,AGAAGCTA,-0.0476
22,ATGCCTGG,-0.0281
23,ACACCTCC,0.347
24,AGCCTCGG,-0.0606
25,ACTTATTG,-0.17

row,Sequence,binding signal [E-score]
1,TGGTAAAA,-0.187
2,AAGAATCC,0.127
3,GGGGTATA,0.441
4,GGCGTTAC,-0.0948
5,GTTGTGCA,-0.21
6,AGCGCATC,-0.063
7,AAAACAGG,-0.187
8,ACCCCTAT,0.339
9,ACATTCTC,-0.228
10,ACACCCAT,0.271
11,CAAGTGCA,-0.248
12,AGGCTAGA,-0.102
13,AGGCGACG,-0.188
14,AGCGTCTC,0.0912
15,TGGGCACA,-0.0211
16,CCCCAGTA,0.0352
17,CGTCTGCA,-0.0977
18,TAGCGGGA,-0.0673
19,ACGACAAG,-0.0528
20,CTCCGCAG,-0.107
21,AAGGATTC,-0.0708
22,AATAGAGT,-0.162
23,CTGGACTC,-0.18
24,AGTCCGGC,-0.205
25,AATGTCTC,0.0976

row,Sequence,binding signal [E-score]
1,GGTACAGA,0.0115
2,ATGAGACG,0.251
3,CTCGCGGA,0.0543
4,AGCCTATG,-0.123
5,GTCAGGAC,-0.162
6,ATCCACAC,0.296
7,ATAGAACA,0.0467
8,CATTCATA,0.0087
9,AACCTCGG,-0.0299
10,TCTACAGA,-0.114
11,CATTATGC,0.0719
12,CCAGGAAG,-0.145
13,CGTAAGTC,-0.127
14,AAATTATT,-0.26
15,CAAATATG,0.061
16,CTCAACTA,-0.0318
17,TAAGTACA,-0.0744
18,CAGCTGAA,-0.268
19,TTAAACAA,-0.272
20,CCTATCCC,0.291
21,TAGCCATA,0.127
22,AAGAAAAC,-0.248
